System: murine gammaherpes virus 68 (MHV-68)
Assay type: cell-based
Settings: data not shown

Sequence: WLVFFVIFYFFR [FP1]
- antiviral effects: no antiviral effects

Reference: patent US20130205416A1 (priority 2010, published 2013)
